# The full ranking holds about 33,000 sequences; the median of “E-score (-0.5 to 0.5)” is about -0.016, and the highest 2% start at about 0.32. The list shows a part of the results.
# Target: T1, Stp1 (UniProt B3LFK1)
# T1 sequence: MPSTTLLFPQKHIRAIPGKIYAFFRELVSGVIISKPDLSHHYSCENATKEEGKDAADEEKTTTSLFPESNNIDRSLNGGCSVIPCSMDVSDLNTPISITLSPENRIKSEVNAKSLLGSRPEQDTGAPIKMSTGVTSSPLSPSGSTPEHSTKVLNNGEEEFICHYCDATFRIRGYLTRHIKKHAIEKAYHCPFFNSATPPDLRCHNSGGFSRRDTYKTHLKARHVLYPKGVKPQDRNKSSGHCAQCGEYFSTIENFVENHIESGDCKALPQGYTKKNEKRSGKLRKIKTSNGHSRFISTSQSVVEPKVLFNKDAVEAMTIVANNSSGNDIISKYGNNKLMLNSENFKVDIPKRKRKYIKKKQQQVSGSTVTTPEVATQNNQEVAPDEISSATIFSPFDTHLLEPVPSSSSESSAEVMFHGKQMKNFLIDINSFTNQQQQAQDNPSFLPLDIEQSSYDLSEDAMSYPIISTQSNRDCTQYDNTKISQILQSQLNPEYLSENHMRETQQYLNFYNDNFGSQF
# Assay: PBM E-score (8-mer binding enrichment) (E-score (-0.5 to 0.5)); higher = stronger / more preferred TF binding; most listed sequences are background and not binding sites
# Details: protein concentration: 200 nM; construct: GST-full length
# Summary of the method: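 Masliner-normalised scans of fluorescent anti-GST signal were the basis for scoring. That signal came from GST-tagged yeast transcription factors applied at about 100-200 nM to double-stranded universal all-10-mer Agilent arrays on fresh or once-stripped slides. Each ungapped eight-base word, pooled with its reverse complement, received an E-score from the Universal PBM Analysis Suite.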
row,Sequence,PBM E-score
1,ACTACACA,0.075
2,ATGAAAAC,0.187
3,TGACAGAA,0.127
4,AACAGGTC,-0.214
5,CGCGATAA,0.0906
6,CAGATGGA,-9e-05
7,AGGGGCCG,-0.0963
8,ATGCATTG,-0.111
9,CCGATAAA,-0.0775
10,CACAGACA,0.107
11,GGGTGATA,-0.273
12,CTCCTAAG,-0.121
13,GTCCATTA,0.0744
14,CCCGGAGC,-0.141
15,TCGCGTCA,-0.126
16,AACGACCC,-0.213
17,GCACTATA,0.188
18,ATGTCTGC,0.00517
19,CCGCCATA,0.0719
20,ATTCTTCC,-0.223
21,GCACACCA,-0.0799
22,CATCTCCG,0.0211
23,AAGCCACA,0.0518
24,CCCACTCC,-0.295
25,CGTTATCA,0.0755

row,Sequence,PBM E-score
1,CTTATGAA,-0.00014
2,TACAGTAA,0.00798
3,AACCCCCT,-0.272
4,ATAGGTTC,0.0795
5,AAGTTTTA,0.189
6,GTTCGAAA,0.284
7,ACTCTGTA,0.0765
8,AAGCAATC,-0.217
9,AAAGTAGC,0.0671
10,CATGGAAG,0.0199
11,ATTACATG,0.0819
12,ATGACGGG,-0.0445
13,CCCTTCGA,-0.117
14,GAAATCGA,-0.0915
15,ACTCGTTG,0.0496
16,AACATGAA,0.0615
17,TGTTCGAA,0.135
18,AGAACTCC,-0.143
19,GAGGTTGC,-0.18
20,GTGGGGTA,-0.0559
21,AATAGGAT,0.141
22,CGCTCTCA,-0.0367
23,TACGTTGA,-0.072
24,CGAGAGAA,-0.103
25,CTCGTTTC,-0.0446

row,Sequence,PBM E-score
1,CGAGGCAC,0.384
2,CCGTAATA,0.0764
3,GGAATTAC,-0.0176
4,TCCCGGAA,-0.0693
5,ATTTTAAC,-0.0293
6,ATTCACCC,-0.141
7,AAGACAGC,-0.154
8,AGAATCCT,-0.205
9,TAGTGTCA,0.0697
10,AGCTTCAA,0.0483
11,ACCACTGA,0.0768
12,ATATAGTC,0.0848
13,CCAATGAA,-0.205
14,CCCCCTAC,-0.29
15,CGTGTATC,0.0372
16,GCTGAACC,-0.0468
17,AAGATTCC,0.0824
18,ATGAAATC,0.135
19,GGAGTACC,-0.281
20,ACACCCGA,-0.0815
21,CCCTCGTA,-0.0643
22,AGGGCGTG,-0.0356
23,CGCCCGGC,-0.0372
24,AGTATATG,-0.0746
25,CATTGACA,0.0464

row,Sequence,PBM E-score
1,GGAACCGA,-0.0457
2,CACGAAGG,-0.0374
3,AACGACGT,0.0278
4,CTGCATGA,-0.13
5,ATGACCAT,-0.0894
6,CCAACGCG,0.0582
7,AACGCCAT,0.169
8,GAGCAAAC,-0.0784
9,AGGACTAT,-0.132
10,GAAGCGGA,-0.0314
11,ACGCGAGA,-0.0293
12,GCAAACGA,0.0507
13,CTATCTTC,-0.0671
14,CATCACAG,-0.0415
15,CCCGGCGA,-0.0779
16,CCCCTAAC,-0.0546
17,AGGAGCCG,0.247
18,CCCTATTC,-0.0984
19,ATTCCCGC,0.196
20,CCCGCTGA,-0.297
21,ACATAGCC,0.0177
22,AGAGAACA,-0.0119
23,AACTATTC,0.0119
24,TGTGGAAA,0.195
25,ATCTTTTC,0.0462

row,Sequence,PBM E-score
1,ACTCCACC,-0.194
2,GGTGGTCA,-0.177
3,AGGCAGAG,-0.00743
4,ACGGGAGT,0.0109
5,AAGCCCTA,-0.055
6,CTTAACAC,-0.027
7,CCCTGCAA,-0.0457
8,CAAGCGTA,-0.11
9,AGTTATTG,0.0609
10,CACCTCGC,-0.156
11,AAGGGGCC,-0.127
12,CTGGCCAA,-0.248
13,CGGCTATC,0.256
14,ACTTAAAA,0.173
15,ATGCGCGC,0.209
16,GTTATCGA,-0.0294
17,ACGGTTGC,-0.134
18,GTATCAAA,0.154
19,CCTTGGCA,-0.188
20,CCCATAGG,-0.0795
21,CACATTCC,-0.107
22,ATTCCCGG,0.0195
23,ACAGCGAC,-0.198
24,AGGTAGAG,-0.269
25,CGGCAGTA,0.271

row,Sequence,PBM E-score
1,CCGTAGAA,0.183
2,ACCGCGAC,0.0496
3,AAGCTTGC,-0.1
4,GGACGCTA,-0.244
5,GGCCCATA,-0.115
6,GCTCAAGC,0.0943
7,CACGTGGG,0.139
8,AGAAAATA,0.0815
9,CCCGGTCC,-0.335
10,TTAAGAAA,0.105
11,AAAAATAA,0.174
12,AAATCTTC,-0.114
13,GAATTCCA,-0.0037
14,TCCCAGGA,-0.255
15,GATAGAAA,-0.0251
16,CCGATCGA,0.0713
17,AGTCACGC,-0.224
18,ACCTGCCT,-0.153
19,ATACGGAA,0.268
20,CTAGATAG,-0.127
21,TGGCCCCA,-0.356
22,CCTAAGAG,-0.0473
23,ACTTGGGC,-0.139
24,AGAGAACC,-0.189
25,CCGTGCAG,0.315

row,Sequence,PBM E-score
1,GACTACTC,-0.125
2,GAAGCACC,-0.186
3,ATCTTGCA,0.216
4,CCGGACAC,-0.00389
5,GCATATCC,-0.0106
6,CGTCCAGA,-0.0946
7,CAAAGATA,0.0921
8,TACTACCA,-0.123
9,CTCGCCGA,-0.0672
10,AGTATAAT,0.127
11,ACGTGTAC,-0.219
12,AGGCGTTA,0.236
13,CAATCCAA,0.0601
14,ATCGGATC,-0.0636
15,ATAGAAAA,0.0396
16,AAGCCGCT,0.265
17,AGACGGAT,0.14
18,CAGAGGCA,-0.00947
19,ACCGTATA,-0.0953
20,AGAGCAGA,-0.119
21,CGCGCACC,0.183
22,ATATGTAC,0.194

# Source: the supplement of paper PMC3334620
